Marks after values point to notes of the source that are not given here.
Tests used:
[1] = system: rumenal fluid containing a bacterial mixture commonly found in cattle; experiment: End products of in vitro fermentation (pH, lactate, VFA); type: cell-based; conditions: alfalfa; hop acids 2 ppm, monensin 6 ppm; vs control
From the text: Proprionate is largely responsible for animal growth. […] Lactate is an intermediate in the formation of propionate. One concern with increasing lactate levels is a drop in pH. Lactate is a fairly strong acid and low pH's in the rumen reduces food and energy uptake. […] The beta acids are able to control harmful bacteria, thus allowing the formation of more lactate, an intermediate for the production of propionate. In Example 4, barley was allowed to ferment in an artificial gut to which 1.25 ppm, 2.5 ppm or 3.75 ppm of beta acids were added and the volatile fatty acid end products of the in vitro fermentation of barley were measured. Beta acids are effective at killing and inhibiting the growth of gram-positive bacteria and protozoa but not gram-negative bacteria. Since acetate is formed by the gram-negative bacteria, B. ruminicola, it is not expected that beta acids would control the formation of acetate. However, a slight reduction in acetate levels is expected if propionate levels increase. […] As the amount of beta acid increases in the synthetic gut, the amount of proprionate increases. […] In Example 5, alfalfa was allowed to ferment in an artificial gut to which 1.25 ppm, 2.5 ppm or 3.75 ppm of beta acids were added and the volatile fatty acid end products of the in vitro fermentation of alfalfa were measured. […]

[2] = system: rumenal fluid containing a bacterial mixture commonly found in cattle; experiment: In vitro gas production, artificial rumen fermentation; conditions: monensin 6 ppm

CC[C@@]1([C@@H]2O[C@@H]([C@H]3O[C@@](O)(CO)[C@H](C)C[C@@H]3C)C[C@@H]2C)CC[C@H]([C@]2(C)CC[C@]3(C[C@H](O)[C@@H](C)[C@@H]([C@@H](C)[C@@H](OC)[C@H](C)C(=O)O)O3)O2)O1 [monensin]
propionate [1]: increased significantly
Gas Production Rate ([2]; alfalfa): 9.2^a %/hr
Gas Production per g fermented ([2]; alfalfa): 263^ab mL/g fermented
Gas Production Rate ([2]; barley): 9.1^b %/hr
Gas Production per g fermented ([2]; barley): 212^bc mL/g fermented
Gas Production Rate ([2]; corn): 8.9^b %/hr
Gas Production per g fermented ([2]; corn): 233^ab mL/g fermented
